In all, about 410,000 compounds went through this assay and about 6,400 (1.6%) were called active. Inconclusive results, whose numbers are uncertain, are shown with a selection of clear calls. The call rests on the fitted dose curve; in most records, active means well fitted inhibition curve with a large enough effect; inconclusive means small, poorly fitted or top-dose-only effect; inactive means no such curve, though single readings can be large or run the other way. No potency is given beside an inconclusive call; the fits are too rough.
Molecular target: Glucagon-like peptide 1 receptor (Homo sapiens) (UniProt P43220)
UniProt P43220, sequence (P43220 whole entry, looked up): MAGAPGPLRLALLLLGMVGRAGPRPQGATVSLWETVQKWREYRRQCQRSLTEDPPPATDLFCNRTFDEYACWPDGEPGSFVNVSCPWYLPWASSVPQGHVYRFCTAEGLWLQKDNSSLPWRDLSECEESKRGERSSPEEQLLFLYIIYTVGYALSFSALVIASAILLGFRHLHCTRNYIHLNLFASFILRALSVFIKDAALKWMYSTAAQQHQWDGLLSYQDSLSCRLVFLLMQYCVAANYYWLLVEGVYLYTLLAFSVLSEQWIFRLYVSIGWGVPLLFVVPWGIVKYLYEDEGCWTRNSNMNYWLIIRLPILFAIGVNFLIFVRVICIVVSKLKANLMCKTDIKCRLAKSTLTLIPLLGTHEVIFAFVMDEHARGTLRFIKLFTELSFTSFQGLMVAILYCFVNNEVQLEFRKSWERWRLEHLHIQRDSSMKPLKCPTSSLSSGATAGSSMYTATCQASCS
Experiment: qHTS of GLP-1 Receptor Inverse Agonists (Inhibition Mode); further: nearly all actives have a fitted effect of over 55% in size
Conditions: HEK293 GLP-1R CRE-luciferase, luminescence, 24 h, GLP-1R form is constitutively active; activity change, negative = inhibition: at 38.3 µM (top of the series) unless noted
Summary of the method: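 Cells are plated, allowed 12 hours at 37 deg C, then treated with compounds for 24 hr before luciferase detection reagent is added and luminescence is read after 12 min at room temperature. The HEK293 line carries constitutively active GLP-1R with a cAMP-responsive reporter.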
On the % scale 0 is the no-effect control and ±100 the full control effect; potency means the concentration at half of the fitted maximal effect; tags describe the fitted curve by direction and shape.

Row | Structure (SMILES) | Potency | activity change, negative = inhibition
1 | COc1ccc(-c2nc(N)nc(C)c2Oc2ccccc2Br)c(O)c1 | inconclusive [inhibitor, partial curve, poor fit] | –
2 | O=C(/C=C/Nc1ccccc1)c1ccc(Oc2ncccn2)cc1 | – | inactive: 39.9%
3 | Cc1ccc(S(=O)(=O)N2CCN(CC(=O)N/N=C\c3ccc(O)c(O)c3)CC2)cc1 | – | inactive: 15.7%
4 | CCCCC1(Cc2cccc([N+](=O)[O-])c2)C(=O)N(c2ccccc2)N(c2ccccc2)C1=O | inconclusive [inhibitor, partial curve, poor fit] | –
5 | COC(=O)c1[nH]c2cc(OC)c(OC)cc2c1/C=N/Nc1ccccc1 | inconclusive [inhibitor, partial curve, poor fit] | –
6 | CC(Oc1ccc(Cl)cc1Cl)c1ccnc2nc(N3CCOCC3)nn12 (configuration not stated) | inconclusive [inhibitor, single point] | –
7 | Cc1cccc(N2CCN(C(=O)c3c(C)nn(Cc4ccccc4Cl)c3C)CC2)c1C | inconclusive [inhibitor, partial curve, poor fit] | –
8 | Cc1cccc(N2CCN(C(=O)c3cnc(N4CCCC4)nc3C)CC2)c1C | inconclusive [inhibitor, partial curve, poor fit] | –
9 | CCNc1nc(-c2cc3ccccc3o2)cs1 | inconclusive [inhibitor, single point] | –
10 | CCC1=C(c2ccc(C)cc2)S(=O)(=O)N=C1N1CCC(C(=O)NCc2ccc(N(C)C)cc2)CC1 | – | inactive: -5.9%
11 | Cc1ccc(S(=O)(=O)N2CCN(C(=O)NCc3ccc(F)cc3)CC2)c(C)c1 | inconclusive [inhibitor, partial curve, poor fit] | –
12 | CC1(C)CC(=O)C=C(c2ccc(COC(=O)c3cc(F)cc(F)c3)cc2)C1=O | – | inactive: -15.2%
13 | COc1ccc(N(C(=O)c2ccc(C(C)(C)C)cc2)S(=O)(=O)c2ccc(Cl)cc2)cc1 | inconclusive [inhibitor, single point] | –
14 | CCOc1ccc(OCc2cccc(C(=O)N3CCCCCC3)c2)cc1 | inconclusive [inhibitor, single point] | –
15 | O=C(CN1CCC(NC(=O)c2ccc(F)cc2)CC1)NCc1ccccc1F | inconclusive [inhibitor, partial curve, poor fit] | –
16 | Cc1ccc(C)c(NC(=O)Cn2nnc(C(=O)Nc3c(C)cccc3C)c2N)c1 | inconclusive [inhibitor, single point] | –
17 | N#Cc1c(-c2ccccc2)nc(SCc2cccc(C(F)(F)F)c2)[nH]c1=O | inconclusive [inhibitor, partial curve, poor fit] | –

— PubChem BioAssay AID624417 (National Center for Advancing Translational Sciences (NCATS), 2012)
